# Measured values published in PubChem BioAssay AID652104 (National Center for Advancing Translational Sciences (NCATS), 2013).
# Hit rate of the full screen: of about 410,000 compounds, about 7,200 (1.8%) were called active. This list was built around the results that the source calls inconclusive (neither active nor inactive); the mix of calls is not that of the screen. Calls come from the whole dose curve; as a rule, active = well fitted activation curve with a large enough effect; inconclusive = small, poorly fitted or top-dose-only effect, or another doubt; inactive = no such curve, though single readings can be large or run the other way. Potencies of inconclusive entries are left out as doubtful fits.
# Assay: qHTS of TDP-43 Inhibitors; note: nearly all actives have a fitted effect of over 50% in size; for growth rescue (activation): % of control where 0% means no effect
# Settings: TDP-43 expressing yeast growth rescue, BacTiter-Glo, 24 h; growth rescue (activation): at 46.1 µM (top of the series) unless noted
# Procedure, shortened: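 Yeast cells expressing TDP-43 under galactose induction are exposed to compounds for 24 hr at 30 deg C. BacTiter-Glo luminescence measures growth, so protective compounds score as activators.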
# Potency is the fitted concentration of half-maximal effect; tags give direction and shape of the fitted curve.
SMILES,Potency,growth rescue (activation)
CC(=O)c1cnc(Oc2cc(Cl)ccc2Cl)nc1C,"inconclusive [activator, partial curve]",
O=C(Oc1ccc2ccc(O)cc2c1)c1ccccc1Cl,active: 14.1 µM,
COc1ccc(/C=C/c2ccc3cccc(O)c3n2)c(OC)c1OC,"inconclusive [activator, single point]",
Fc1ccc(CNC(=S)Nc2ccc(Cl)cc2)cc1,"inconclusive [activator, single point]",
COc1cc(C(O)c2nc(-c3ccc(C)c(C)c3)cs2)ccc1F (stereo unspecified),active: 35.5 µM,
COc1cc(OC)cc(C(=O)Nc2ccc(-c3nc4cc(C(C)C)ccc4o3)cc2)c1,"inconclusive [activator, full curve]",
COc1cccc(C(C)=C2SC(=S)NC2=O)c1,,inconclusive: -36.5% [activator]
Cc1cc(=O)oc2cc(NC(=O)C(C)Oc3ccccc3)ccc12 (stereo unspecified),"inconclusive [activator, single point]",
Cc1ncsc1CCSc1nc2ccccc2c(=O)n1C,"inconclusive [activator, single point]",
O=C(N/N=C/C(Br)=C/c1ccccc1)c1ccccc1[N+](=O)[O-],"inconclusive [activator, partial curve]",
C=CCC1(CC=C)CCCN1C(=O)c1cc(COc2cccc(C(F)(F)F)c2)on1,inactive,
O=C(NCC(c1cccnc1)N1CCN(Cc2ccccc2)CC1)C(=O)Nc1cccc(Cl)c1 (stereo unspecified),inactive,
Cc1coc2cc3oc(=O)c(CCC(=O)NCc4ccccc4Cl)c(C)c3cc12,inactive,
Cc1cc(=O)nc2c3ccccc3n(CC(=O)NCCCN3CCOCC3)n12,"inconclusive [activator, single point]",
O=[N+]([O-])c1ccc(Cl)c(S(=O)(=O)Nc2cccc(S(=O)(=O)NC3=NCCC3)c2)c1,inactive,
Cc1cccc(N2CCN(c3ncnc4c3nc3n4CCCCC3)CC2C)c1 (stereo unspecified),"inconclusive [activator, single point]",
Fc1ccc(NC(=S)N/N=C/c2ccc(F)c(F)c2)cc1,"inconclusive [activator, partial curve]",
CC(C)N1C(=O)C2C(c3ccccc3O)NC(C)(C(=O)O)C2C1=O (stereo unspecified),"inconclusive [activator, partial curve]",
CCOC(=O)C1=C(C)N(CC)C(=S)NC1c1ccc(Cl)cc1 (stereo unspecified),"inconclusive [activator, partial curve]",
N=c1c2ccccc2nnn1-c1ccccc1[N+](=O)[O-],"inconclusive [activator, partial curve]",
Cc1ccc(O)c(C(=O)C=Cc2ccccc2)c1,active: 12.6 µM,
O=C(CCCN1C(=O)c2cccc3cccc(c23)C1=O)N1CCN(c2ccccc2O)CC1,"inconclusive [activator, single point]",
Cc1ccc(-n2nnnc2SCC(=O)NC2CCCc3ccccc32)c(C)c1 (stereo unspecified),"inconclusive [activator, single point]",

SMILES,Potency,growth rescue (activation)
COc1ccc2c(c1)CCC1(C)CC(=O)C(Br)=C21 (stereo unspecified),"inconclusive [activator, partial curve]",
CC(C)NC(=O)C1(N2C(=O)c3ccccc3C2=O)CCCC1,active: 11.2 µM,
Cc1ccc(N=Nc2ccc(O)cc2)c(Br)c1,,inconclusive: -91.2% [activator]
CC1CCCN(C(=O)COc2ccc(-c3ccccc3)cc2)C1 (stereo unspecified),"inconclusive [activator, partial curve]",
CC1CC2=C(CC1/C=N/NC(N)=S)C(C)(C)CCC2 (stereo unspecified),active: 22.4 µM,
CC(=O)c1ccc(NC(=O)c2c(C)nn(-c3ccccc3)c2Cl)cc1,active: 11.2 µM,
O=C(Nc1ccc([N+](=O)[O-])cc1)c1cn(-c2ccccc2)nc1-c1cc2ccccc2o1,inactive,
CCc1ccccc1NC(=O)CSc1nnc(-c2ccccc2)c(-c2ccccc2)n1,inactive,
O=C(C[C@H]1C/C=C\C[C@H](Cc2ccc(F)cc2)C(=O)O[C@@H](c2ccccc2)CNC1=O)N[C@H](CO)Cc1ccccc1,inactive,
O=S(=O)(NCC(c1ccco1)N1CCN(c2ccccc2)CC1)c1ccccc1 (stereo unspecified),inactive,
CCCNc1nc(Cl)nc(NC(C)(C)C)n1,"inconclusive [activator, partial curve, poor fit]",
Cc1cccn2c3c(c(=O)nc12)C(c1ccc(F)cc1)CC(=O)N3 (stereo unspecified),"inconclusive [activator, single point]",
CCOc1ccccc1NC(=O)c1ccc(OCC(=O)N2CCOCC2)c(OC)c1,"inconclusive [activator, full curve, poor fit]",
Cc1ccc(C(=O)N2CCN(c3cccc(Cl)c3)CC2)cc1C,"inconclusive [activator, single point]",
COc1ccc(CCNC(=O)c2cc(=O)c3cc(C)ccc3o2)cc1OC,"inconclusive [activator, partial curve]",
N/C(=N\OC(=O)CSc1ccccc1)c1ccc([N+](=O)[O-])cc1,"inconclusive [activator, single point]",
O=C1C(=O)c2ccccc2C(O)=C1c1ccccc1F,,inconclusive: -91.8% [activator]
CCOc1ccc(C2=Nn3c(CC)nnc3SC2)cc1,active: 17.8 µM,
Cc1ccc(NC(=O)CN2C(=O)NC3(CCc4ccccc43)C2=O)cc1S(=O)(=O)N1CCCCC1 (stereo unspecified),inactive,
CC(C)(C)NC(=O)NC(=O)CSc1nnc(COc2ccccc2Cl)o1,"inconclusive [activator, single point]",
CCn1cc(CNC(=O)/C=C/c2ccc([N+](=O)[O-])cc2)cn1,"inconclusive [activator, single point]",
O=c1[nH]nc(Cc2ccc([N+](=O)[O-])cc2)c2ccccc12,"inconclusive [activator, partial curve]",
Cc1cccc(C(=O)OC(C)C(=O)N2CCc3ccccc3C2)c1C (stereo unspecified),active: 17.8 µM,
